Test results as given in the supplement of paper PMC11417369.
± gives the standard deviation of the averaged measurements. The list shows a part of the results.

The sequences below were run on PfAP2-G AP2 domain (GST-tagged) (assay: gcPBM binding intensity (ln(normalized median fluorescence intensity)); higher = stronger DNA binding).
In short: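 Binding intensity is defined as the maximum Masliner-normalised natural-log median intensity across replicate spots for either probe orientation. It was measured on an Agilent 4 × 180k array of primer-extended double-stranded 36-bp intergenic genomic probes and negative controls, to which GST-tagged P. falciparum DNA-binding domains made in E. coli were applied for 1 h in 1× PBS with 1% milk, 0.2 mg/ml BSA, 0.5% salmon testes DNA and 0.03% Triton X-100. Detection was by Alexa488 anti-GST antibody and scanning at 488 nm.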
“TTTGCTTCCAAAAGTCGTACAAAAAATATTAAATAT [XGTACX_site4171]” was tested, and the “gcPBM binding intensity (ln)” value was 11.6 ± 0.9.
With “TAAATATATTAATACACACACGATATGTACAAAAAA [CACACA_site540]” the “gcPBM binding intensity (ln)” value was 11.3 ± 0.73.
With “TGCATATACGCAAGCACACATATATATATATATATA [CACACA_site1069]” the “gcPBM binding intensity (ln)” value was 10.1 ± 0.26.
For “TTTTGATTTCCTATTGCACACTTTTTTTAAGTTTAT [CACACA_site1056]”, the “gcPBM binding intensity (ln)” value was 10.185 ± 0.007.
For “TATATATATATATAATGTACATATAATATATTTATT [XGTACX_site7892]”, the “gcPBM binding intensity (ln)” value was 11.2 ± 0.73.
In the case of “GCTTAATGTCATATATCACACATGAAAATATATATA [CACACA_site5089]”, the “gcPBM binding intensity (ln)” value is reported as 10.1 ± 0.12.
For “AACAAAACCTTATATGTACACACATATACATCACAC [CACACA_site9037]”, the “gcPBM binding intensity (ln)” value was 11.3 ± 0.61.
In the case of “TATATATATATATATTGTACTGAACGTTTTTTTTTG [XGTACX_site8060]”, the “gcPBM binding intensity (ln)” value is reported as 10.8 ± 0.67.
With “ATTAATTTTAATAAAGGTACACGTAGTTTTTTATTA [XGTACX_site7868]” the “gcPBM binding intensity (ln)” value was 11 ± 0.69.
In the case of “TTAAAATTAAAAATGCGTACACATATACATAAAAAA [XGTACX_site1915]”, the “gcPBM binding intensity (ln)” value is reported as 11.7 ± 1.
With “ATATACACTTAATTTTTTATAAAAAAAAATTTATAT [CACACA_negctrl_site498]” the “gcPBM binding intensity (ln)” value was 10 ± 0.24.
With “GTAATAATTTTTTGTAGTACACAAAAATTCATATTT [XGTACX_site2699]” the “gcPBM binding intensity (ln)” value was 11.7 ± 1.1.
With “ATGTGATATAAGTACACACACATATGTATTTATAAC [CACACA_site6942]” the “gcPBM binding intensity (ln)” value was 11.5 ± 0.8.
In the case of “ATATACATAATCTTCTTGCACTTTTTTTTTTTTTTT [GTGCAC_site9410]”, the “gcPBM binding intensity (ln)” value is reported as 10.3 ± 0.22.
With “TATATTTTGTTCTTTCCACACACAAATACATATATT [CACACA_site9348]” the “gcPBM binding intensity (ln)” value was 10.2 ± 0.11.
With “AATTTATAATTATAGAGTACATATTTTTAATATATA [XGTACX_site2566]” the “gcPBM binding intensity (ln)” value was 11.1 ± 0.83.
In the case of “AGAAAAACTTATATGATACACACGATAAACAAAATA [CACACA_site1038]”, the “gcPBM binding intensity (ln)” value is reported as 10.7 ± 0.71.
With “TACAAACACCCATATACACACAAAAAAAAAATAAAA [CACACA_site5421]” the “gcPBM binding intensity (ln)” value was 10.1 ± 0.47.
In the case of “TATACATAAAACAGTTCACACATTGTATGAATATAT [CACACA_site4751]”, the “gcPBM binding intensity (ln)” value is reported as 9.855 ± 0.035.
In the case of “TATATAATATATATATGTACATATATATATGTTTTT [XGTACX_site3347]”, the “gcPBM binding intensity (ln)” value is reported as 11.1 ± 0.61.
With “GGACAACAAACAAACACACACAAAAAAAAAATAAAA [CACACA_site3791]” the “gcPBM binding intensity (ln)” value was 10.3 ± 0.19.
With “TTGTTTCTTTTTTTTTGTACATATATATTGTATATT [XGTACX_site7602]” the “gcPBM binding intensity (ln)” value was 11 ± 0.61.
For “AATTTTTCAAATTAATGTACTTGTTATAAATTGTAA [XGTACX_site5428]”, the “gcPBM binding intensity (ln)” value was 11.1 ± 0.89.
“TACGTATTTTAATATTTACACACTTATTTTTTATAT [CACACA_site7924]” was tested, and the “gcPBM binding intensity (ln)” value was 10.2 ± 0.13.
With “GGCAATACATAATAATGTACATAATTATATAATATT [XGTACX_site3739]” the “gcPBM binding intensity (ln)” value was 11 ± 0.54.
